According to the supplement of paper PMC3334620:
Over roughly 33,000 sequences, “E-score (-0.5 to 0.5)” has its median near -0.056; the highest 2% begin near 0.38. The list shows a part of the results.

The sequences below were run against Stb4 (UniProt P50104) (assay: PBM E-score (8-mer binding enrichment) (E-score (-0.5 to 0.5)); higher = stronger / more preferred TF binding; most listed sequences are background and not binding sites). Conditions: protein concentration: 200 nM; construct: GST-DNA-binding domain.
Protocol: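 Universal 'all 10-mer' protein binding microarrays (Agilent AMADID 015681) probed with GST-tagged S. cerevisiae TFs (full-length or DBD) made by in vitro transcription/translation (PURExpress), about 100-200 nM. Bound TF was detected with fluorescent anti-GST. Each ungapped 8-mer (which stands for itself and its reverse complement) is scored by the PBM enrichment score (E-score), a modified Wilcoxon-Mann-Whitney statistic from -0.5 to +0.5, computed with the Universal PBM Analysis Suite. Scale: above 0.35 generally sequence-specific binding.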
For GTGGGACA, the “PBM E-score” value was -0.0153. ATGTCCAC was tested, and the “PBM E-score” value was -0.0406. For ATCCTATA, the “PBM E-score” value was -0.0575. For GACCGTAC, the “PBM E-score” value was 0.0178. In the case of CACTGAAA, the “PBM E-score” value is reported as -0.0776. For CGATAATC, the “PBM E-score” value was -0.0136. ACGTCACC was tested, and the “PBM E-score” value was -0.0588. GATTACAC was tested, and the “PBM E-score” value was -0.12. For ACCTTCAC, the “PBM E-score” value was -0.0961. With ATATTATC the “PBM E-score” value was -0.0226. In the case of GCAAGGGA, the “PBM E-score” value is reported as -0.251. For AGCGGGTG, the “PBM E-score” value was 0.0899. In the case of CATAGCCA, the “PBM E-score” value is reported as -0.156. In the case of AGTCGCTA, the “PBM E-score” value is reported as -0.174. In the case of CTAGGCCC, the “PBM E-score” value is reported as -0.0168. With GTCGCCTA the “PBM E-score” value was 0.00181. With AGCGAGCA the “PBM E-score” value was -0.145. For CCACGGAC, the “PBM E-score” value was 0.012. CGAGCCAA was tested, and the “PBM E-score” value was 0.00699. In the case of ACACCAGG, the “PBM E-score” value is reported as -0.154. For CTCGCTCC, the “PBM E-score” value was 0.0527. With AAATCAAC the “PBM E-score” value was -0.136. For ACGCGGGC, the “PBM E-score” value was 0.174. With AATACGCA the “PBM E-score” value was -0.161. AGGTATTC was tested, and the “PBM E-score” value was -0.139. ACCTCGCA was tested, and the “PBM E-score” value was -0.227. For AACAGCAA, the “PBM E-score” value was -0.125. With CGCCAAGC the “PBM E-score” value was -0.132. With ACACACGC the “PBM E-score” value was 0.0995. AACCGTGA was tested, and the “PBM E-score” value was 0.0656. With CTTACCCC the “PBM E-score” value was -0.0993. For ACTTGTTG, the “PBM E-score” value was -0.303. CTCAGAAA was tested, and the “PBM E-score” value was -0.232. In the case of AAGAGACG, the “PBM E-score” value is reported as 0.119. With AGTACGCA the “PBM E-score” value was -0.272. With CGGCTCTA the “PBM E-score” value was 0.257. With ATGTACCG the “PBM E-score” value was 0.204. With AAGGAGTG the “PBM E-score” value was -0.0911. With ACCAATAT the “PBM E-score” value was -0.151. In the case of CAGACTAA, the “PBM E-score” value is reported as -0.0911. ACGCAATG was tested, and the “PBM E-score” value was -0.294. CGGCCATA was tested, and the “PBM E-score” value was 0.00203. In the case of CGCCATAG, the “PBM E-score” value is reported as -0.138. In the case of ATAGCACC, the “PBM E-score” value is reported as -0.0552. In the case of CAGCATAG, the “PBM E-score” value is reported as -0.101. With CAGAGTCG the “PBM E-score” value was -0.0973. In the case of AGGTCTTA, the “PBM E-score” value is reported as -0.141. With ATGTAAAG the “PBM E-score” value was -0.162. With GAGACCTC the “PBM E-score” value was 0.0123. CACGGTGA was tested, and the “PBM E-score” value was -0.147. In the case of CTCGGCGC, the “PBM E-score” value is reported as 0.383. For GTACGTAC, the “PBM E-score” value was 0.115. In the case of GCAAAACA, the “PBM E-score” value is reported as -0.0269. GTCATTCA was tested, and the “PBM E-score” value was -0.205. With AATACTAT the “PBM E-score” value was -0.125. With CCCTCGAC the “PBM E-score” value was -0.115. With CGCGGGGA the “PBM E-score” value was 0.214. With ACCCGTAA the “PBM E-score” value was 0.222. With CGTCGGCC the “PBM E-score” value was 0.245. With ATGACAAG the “PBM E-score” value was -0.0418. With GACTTGGC the “PBM E-score” value was -0.207. In the case of GAGCCTTA, the “PBM E-score” value is reported as -0.057. For ATAGAATA, the “PBM E-score” value was -0.0868. With AAGGAGGC the “PBM E-score” value was -0.239. CAAGACCA was tested, and the “PBM E-score” value was -0.153. CCCCCTCG was tested, and the “PBM E-score” value was -0.139. With GTCTGCTA the “PBM E-score” value was -0.0233. In the case of ATTATGGG, the “PBM E-score” value is reported as -0.0331. ACTTCTGC was tested, and the “PBM E-score” value was 0.00201. For CATGACGC, the “PBM E-score” value was -0.195. For AAGATATA, the “PBM E-score” value was -0.0235. With ATCTATCA the “PBM E-score” value was -0.0983. With CTGCAACA the “PBM E-score” value was 0.0514. With CCTGTGTA the “PBM E-score” value was -0.263. AGGGTGTC was tested, and the “PBM E-score” value was -0.0528. CAGGAGAG was tested, and the “PBM E-score” value was -0.273. CCAAGAGG was tested, and the “PBM E-score” value was -0.244. In the case of AGAGCAAA, the “PBM E-score” value is reported as -0.185. For AGAGATAC, the “PBM E-score” value was -0.121. For CAACGAAG, the “PBM E-score” value was -0.176. With ATATGTTG the “PBM E-score” value was -0.127. AAGGCCAG was tested, and the “PBM E-score” value was -0.135. For AGCGTACT, the “PBM E-score” value was -0.135. In the case of CTACCAAG, the “PBM E-score” value is reported as -0.281. For GCAGTACA, the “PBM E-score” value was -0.0615. For TACTTGAA, the “PBM E-score” value was -0.229. AGACCAAT was tested, and the “PBM E-score” value was -0.169. AGGGCGGG was tested, and the “PBM E-score” value was 0.158. GTGAAGAA was tested, and the “PBM E-score” value was -0.139. ATATCTCC was tested, and the “PBM E-score” value was 0.169. With ATGGACAG the “PBM E-score” value was -0.197. In the case of AGGTGCAA, the “PBM E-score” value is reported as -0.144. GTCGAGAA was tested, and the “PBM E-score” value was -0.277. In the case of CCCCAAAG, the “PBM E-score” value is reported as -0.319. GGAAATCA was tested, and the “PBM E-score” value was 0.0529. ATCCGCTC was tested, and the “PBM E-score” value was 0.313. In the case of GTCGCGTA, the “PBM E-score” value is reported as -0.167. In the case of AAACGCGA, the “PBM E-score” value is reported as 0.0221. With ATCGCCAT the “PBM E-score” value was -0.134. For AAGCGAGT, the “PBM E-score” value was 0.183. With ACTTATAG the “PBM E-score” value was -0.122. ATAAAGAC was tested, and the “PBM E-score” value was -0.138. With ATTAAAAG the “PBM E-score” value was 0.0108. GGATTACA was tested, and the “PBM E-score” value was -0.12. For ACACACAC, the “PBM E-score” value was -0.191. In the case of CGAGAATA, the “PBM E-score” value is reported as 0.0419. For CGAAGTAC, the “PBM E-score” value was 0.228. In the case of CATCTTGG, the “PBM E-score” value is reported as -0.141. In the case of CATCGGCA, the “PBM E-score” value is reported as 0.376. With AGTGATAT the “PBM E-score” value was 0.0337. In the case of TGAGAACA, the “PBM E-score” value is reported as -0.212. GAAGGGGC was tested, and the “PBM E-score” value was -0.126. With AACATGTC the “PBM E-score” value was -0.06. For GACAGACA, the “PBM E-score” value was 0.103. For ATTATCTG, the “PBM E-score” value was -0.00421. CTGGAGGC was tested, and the “PBM E-score” value was -0.174. ATTGCGGC was tested, and the “PBM E-score” value was 0.0484. In the case of AGTTTATC, the “PBM E-score” value is reported as 0.0999. With CTTTGCCA the “PBM E-score” value was -0.0706. For CCATCGTA, the “PBM E-score” value was -0.186. For ATTCGGGA, the “PBM E-score” value was 0.415. With AATTCTTA the “PBM E-score” value was -0.0318. CCCGGGAA was tested, and the “PBM E-score” value was 0.355. For ACCGCAAA, the “PBM E-score” value was 0.0423. For AATAGAGG, the “PBM E-score” value was 0.00203. In the case of AAGTTTGG, the “PBM E-score” value is reported as -0.0494. In the case of ATCTTACG, the “PBM E-score” value is reported as 0.0618. For CCGCCGAG, the “PBM E-score” value was 0.394. For AACTGCGG, the “PBM E-score” value was 0.178. With CGACAACG the “PBM E-score” value was -0.0324. For ATTAACGA, the “PBM E-score” value was 0.0839. For CCGGGAAG, the “PBM E-score” value was 0.309. In the case of AAGATCGC, the “PBM E-score” value is reported as -0.194. With CGATACAG the “PBM E-score” value was 0.0396. With CCAATTTC the “PBM E-score” value was 0.18. For AGAGTATG, the “PBM E-score” value was -0.0541. With AAATCGCT the “PBM E-score” value was -0.16. In the case of CAGTAGCC, the “PBM E-score” value is reported as -0.0125. In the case of GAACGAAA, the “PBM E-score” value is reported as -0.145. With CATTGACG the “PBM E-score” value was -0.157. In the case of CCGTAGCA, the “PBM E-score” value is reported as -0.107. In the case of AGGTTAAC, the “PBM E-score” value is reported as -0.0629. In the case of GGTACTTA, the “PBM E-score” value is reported as 0.163. In the case of ACCTTTGC, the “PBM E-score” value is reported as -0.107. In the case of ATAGAGTC, the “PBM E-score” value is reported as -0.016. For CCAGTGGG, the “PBM E-score” value was -0.119. In the case of CCGTCCGA, the “PBM E-score” value is reported as 0.317. In the case of ACACGTCC, the “PBM E-score” value is reported as -0.0618. In the case of AAAGAGCC, the “PBM E-score” value is reported as -0.0224. In the case of ATGGCCTG, the “PBM E-score” value is reported as -0.159. With CTTTGCTC the “PBM E-score” value was -0.0428. With AGCTTAAG the “PBM E-score” value was -0.244. For TAGCTGAA, the “PBM E-score” value was -0.242. GTCTGCAC was tested, and the “PBM E-score” value was -0.122. In the case of CCCCGCTC, the “PBM E-score” value is reported as -0.0289. ACGGTCCA was tested, and the “PBM E-score” value was -0.0376. In the case of GCTATATA, the “PBM E-score” value is reported as -0.0174. CGATCAAC was tested, and the “PBM E-score” value was -0.128. For ACATCACG, the “PBM E-score” value was -0.0148. For ACCGCCCC, the “PBM E-score” value was 0.241. In the case of TACACTAA, the “PBM E-score” value is reported as -0.231. With ATGAGATG the “PBM E-score” value was -0.124. In the case of CATCAGAA, the “PBM E-score” value is reported as -0.295. In the case of AGGGCTGC, the “PBM E-score” value is reported as -0.134. With GAAACCCC the “PBM E-score” value was 0.177. GGGTTTGA was tested, and the “PBM E-score” value was -0.086. With ATTTCGGA the “PBM E-score” value was 0.454. With GTGTGTCA the “PBM E-score” value was -0.0816. GGACACGA was tested, and the “PBM E-score” value was -0.0328. AGTTCCCG was tested, and the “PBM E-score” value was 0.396. AGCAAGAA was tested, and the “PBM E-score” value was -0.0526. For AACTAGGC, the “PBM E-score” value was -0.163.
